Measurements as given in PubChem BioAssay AID504332 (National Center for Advancing Translational Sciences (NCATS), 2011).
Screen size: about 350,000 compounds; about 31,000 (8.9%) were called active. Inconclusive results, whose numbers are uncertain, are shown with a selection of clear calls. Calls follow the shape of the dose curve; as a rule, active = well fitted inhibition curve with a large enough effect; inconclusive = small, poorly fitted or top-dose-only effect; inactive = no such curve, though single readings can be large or run the other way. Potencies beside an inconclusive call are fits to weak or partial responses and may not hold up.

Each compound was assayed against Histone-lysine N-methyltransferase EHMT2 (Homo sapiens) (UniProt Q96KQ7) (assay: qHTS Assay for Inhibitors of Histone Lysine Methyltransferase G9a). Conditions: G9a H3K9 monomethylation, AlphaScreen, 2 h; activity, negative = inhibition: at 59 µM (top of the series) unless noted.
Summary of the method: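 Methyltransferase reactions run at room temperature for 2 h (20 nM enzyme, 500 nM biotin-H3K9 peptide, 20 uM SAM) after a 15 min compound preincubation; product detected by AlphaScreen beads and anti-H3K9me1 antibody.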
% is scaled to controls: 0 for no effect and ±100 for the full control effect; potency is read from the fitted curve at half-maximal effect; tags tell the direction and shape of the fitted curve.
Also: nearly all actives have a fitted effect of over 75% in size.

UniProt Q96KQ7, sequence (Q96KQ7 whole entry, looked up): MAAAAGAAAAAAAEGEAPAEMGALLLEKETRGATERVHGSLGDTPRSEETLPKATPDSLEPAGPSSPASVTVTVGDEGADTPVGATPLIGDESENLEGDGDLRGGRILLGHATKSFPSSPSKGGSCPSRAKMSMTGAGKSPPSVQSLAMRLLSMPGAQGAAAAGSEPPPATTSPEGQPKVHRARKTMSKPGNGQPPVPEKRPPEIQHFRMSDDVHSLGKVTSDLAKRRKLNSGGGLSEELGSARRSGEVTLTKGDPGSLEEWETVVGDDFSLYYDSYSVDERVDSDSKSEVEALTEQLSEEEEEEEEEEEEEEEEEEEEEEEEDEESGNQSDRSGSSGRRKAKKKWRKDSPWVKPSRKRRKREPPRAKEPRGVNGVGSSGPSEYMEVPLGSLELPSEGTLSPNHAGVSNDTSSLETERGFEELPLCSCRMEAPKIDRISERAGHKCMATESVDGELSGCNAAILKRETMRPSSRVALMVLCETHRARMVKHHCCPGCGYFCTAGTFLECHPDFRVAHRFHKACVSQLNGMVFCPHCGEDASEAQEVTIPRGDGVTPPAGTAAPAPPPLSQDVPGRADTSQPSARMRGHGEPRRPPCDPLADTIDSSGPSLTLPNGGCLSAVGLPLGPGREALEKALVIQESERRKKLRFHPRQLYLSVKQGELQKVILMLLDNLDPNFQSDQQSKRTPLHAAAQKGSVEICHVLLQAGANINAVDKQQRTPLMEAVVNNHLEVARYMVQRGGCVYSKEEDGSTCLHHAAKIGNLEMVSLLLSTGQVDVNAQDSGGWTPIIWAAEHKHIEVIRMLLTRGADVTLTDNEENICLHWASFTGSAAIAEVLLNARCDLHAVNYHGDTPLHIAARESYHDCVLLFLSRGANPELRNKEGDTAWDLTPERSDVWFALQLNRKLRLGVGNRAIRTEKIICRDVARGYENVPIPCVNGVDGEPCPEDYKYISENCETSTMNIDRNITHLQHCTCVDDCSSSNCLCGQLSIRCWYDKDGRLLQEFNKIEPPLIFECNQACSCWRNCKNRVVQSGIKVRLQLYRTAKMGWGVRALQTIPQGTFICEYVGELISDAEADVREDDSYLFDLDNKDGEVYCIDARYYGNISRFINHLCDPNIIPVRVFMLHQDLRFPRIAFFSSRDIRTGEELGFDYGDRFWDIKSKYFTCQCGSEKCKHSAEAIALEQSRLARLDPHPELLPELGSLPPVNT

| Compound | Potency | activity, negative = inhibition |
| --- | --- | --- |
| Cc1cc(C)n2nc(SCC(=O)N(C)C3CCCCC3)nc2n1 | inconclusive: 56.2 µM [inhibitor, partial curve, poor fit] | – |
| Cc1ccc(-c2noc(C3CCCN(C(=O)c4cccc([N+](=O)[O-])c4)C3)n2)o1 (stereo not given) | inconclusive: 39.8 µM [inhibitor, partial curve, poor fit] | – |
| Cc1ccccc1N(CC(=O)N/N=C/c1ccccc1Cl)C(=O)c1ccccc1 | inconclusive: 31.6 µM [inhibitor, partial curve, poor fit] | – |
| COc1ccc(CCNC(=O)CCc2cn(Cc3ccc(C)cc3)c3ccccc23)c(OC)c1OC | inconclusive: 8.91 µM [inhibitor, partial curve, poor fit] | – |
| COc1cccc(/C=N/n2c(SC)nnc2-c2ccccc2)c1OC | inconclusive: 89.1 µM [inhibitor, partial curve, poor fit] | – |
| CN(CC(=O)Nc1ccccc1Cl)C(=O)c1ccc(-c2cccc(C(F)(F)F)c2)o1 | inconclusive: 56.2 µM [inhibitor, partial curve, poor fit] | – |
| CCCCOc1ccc(S(=O)(=O)NCc2csc(-c3ccc(OC)cc3)n2)cc1 | inactive | – |
| Cc1ccc(Oc2cc(NN3CCCCC3)c([N+](=O)[O-])cc2[N+](=O)[O-])c(Cl)c1 | inconclusive: 39.8 µM [inhibitor, partial curve, poor fit] | – |
| COc1cccc(N(CC(=O)NC2CCCCC2)C(=O)Cn2nnc(-c3ccc(C)o3)n2)c1 | inconclusive: 79.4 µM [inhibitor, single point] | – |
| CSCCC(NC(=O)c1ccco1)C(=O)NC1CCCCCC1 (stereo not given) | inconclusive: 89.1 µM [inhibitor, partial curve, poor fit] | – |
| O=C(COC(=O)/C=C/c1ccc(C(F)(F)F)cc1)Nc1ccc2[nH]c(=O)[nH]c2c1 | inconclusive: 56.2 µM [inhibitor, partial curve, poor fit] | – |
| O=C(O)c1ccccc1N=Cc1c(O)n(-c2nccs2)c(=O)c2ccccc12 | inactive | – |
| CCCCCOc1ccc(CSc2ncn[nH]2)cc1 | inconclusive: 39.8 µM [inhibitor, single point] | – |
| COc1ccccc1OCC(=O)N1CCN(c2ccccc2OC)CC1 | inconclusive: 25.1 µM [inhibitor, single point] | – |
| O=C(NC(=S)Nc1ccc(N2CCCC2)cc1)c1ccc(F)cc1 | inconclusive: 14.1 µM [inhibitor, full curve, poor fit] | – |
| Clc1ccc2nc(CSCc3ccccc3)cn2c1 | inactive | – |
| O=C(CN1CCN(C2CCCCC2)CC1)Nc1ccccc1N1CCCCC1 | inconclusive: 35.5 µM [inhibitor, single point] | – |
| COCCCN1C(=O)C(O)=C(C(C)=O)C1c1ccccn1 (stereo not given) | inconclusive: 31.6 µM [inhibitor, single point] | – |
| CCN(CC)S(=O)(=O)c1cccc(C(=O)OCC(=O)N2CC(=O)Nc3ccccc32)c1 | active: 20 µM | – |
| CN(C(=O)COC(=O)c1ccccc1OCc1ccc(Cl)cc1)c1c(N)n(Cc2ccccc2)c(=O)[nH]c1=O | inconclusive: 79.4 µM [inhibitor, partial curve, poor fit] | – |
| CCc1nnc(NS(=O)(=O)c2ccc(NCc3ccccc3O)cc2)s1 | inconclusive: 100 µM [inhibitor, single point] | – |
| O=C(O)c1ccccc1S(=O)(=O)c1ccccc1CO | inconclusive: 79.4 µM [inhibitor, partial curve] | – |

| Compound | Potency | activity, negative = inhibition |
| --- | --- | --- |
| COc1ccc(N2CCN(c3nc(-c4cccs4)nc4ccccc34)CC2)cc1 | active: 20 µM | – |
| Cc1cccc(C(C)C)c1NC(=O)C(C)OC(=O)Cc1n[nH]c(=O)c2ccccc12 (stereo not given) | inconclusive: 56.2 µM [inhibitor, partial curve, poor fit] | – |
| CC(=O)Nc1ccc(S(=O)(=O)NCCC(=O)OC(C)C(=O)NC2(C#N)CCCCC2)cc1 (stereo not given) | – | inactive: -13.4% [at 2.33 µM] |
| Cc1cc(C(=O)N2CCCC(Nc3ccc(C(C)C)cc3)C2)nn1C (stereo not given) | inconclusive: 89.1 µM [inhibitor, single point] | – |
| COc1ccc(CC(=O)NCC(c2cccs2)S(=O)(=O)c2ccc(Cl)cc2)cc1 (stereo not given) | active: 8.91 µM | – |
| CCOC(=O)c1c(N2C(=O)C=CC2=O)sc(C)c1C | inconclusive: 3.16 µM [inhibitor, full curve, poor fit] | – |
| Cc1ccccc1OC(=O)c1cccc(S(=O)(=O)N2CCN(C)CC2)c1 | inconclusive: 6.31 µM [inhibitor, single point] | – |
| Cc1cc(C)n(CC(=O)O)n1 | inconclusive: 39.8 µM [inhibitor, single point] | – |
| COc1cc(NC(=S)NNC(=O)CC(C)C)c(OC)cc1Cl | inconclusive: 31.6 µM [inhibitor, single point] | – |
| CCOc1ccc(C2NC(=O)C(C#N)=C(S)N2c2cccc(C)c2)cc1OC (stereo not given) | inconclusive: 89.1 µM [inhibitor, partial curve, poor fit] | – |
| CN(CC(=O)Nc1ccc(F)cc1)C(=O)Cn1cnc2ccc(Cl)cc2c1=O | – | inactive: 0.0839% [at 12.7 µM] |
| Cn1nnnc1SC(C(=O)Nc1cccc(C(F)(F)F)c1)c1ccccc1 (stereo not given) | inconclusive: 0.158 µM [inhibitor, full curve, poor fit] | – |
| COc1cc(C(=O)Nc2nnc(-c3sccc3C)s2)cc(OC)c1OC | inconclusive: 22.4 µM [inhibitor, partial curve, poor fit] | – |
| CCCC(=O)c1ccc2c(c1)OCCO2 | inconclusive: 8.91 µM [inhibitor, single point] | – |
| CCOC(=O)CN=C1CC(C)(C)CC2=C1Sc1ncnc(N(C)C)c1N2 | active: 4.47 µM | – |
| N#Cc1c(/N=C/c2ccco2)sc2c1CCCCC2 | inconclusive: 31.6 µM [inhibitor, single point] | – |
| Cn1nc2c(c1C(=O)N1CCCC(C(=O)c3cc(F)ccc3F)C1)CCCC2 (stereo not given) | inactive | – |
| CCc1nnc(NC(=O)c2ccc(-c3ccc(C(C)=O)cc3)o2)s1 | – | inactive: -7.72% [at 12.7 µM] |
| COc1ccc(Nc2nc(-c3ccccc3)nc3ccccc23)cc1 | inactive | – |
| CCN(CC)c1ccc(/C=C(/C#N)c2nc3ccccc3[nH]2)c(OC(C)C)c1 | inconclusive: 39.8 µM [inhibitor, partial curve, poor fit] | – |
| COc1ccc(CN2C(=O)CN(C3CCCCCC3)C(=O)C2c2ccc(OC)c(OC)c2)cc1 (stereo not given) | inconclusive: 89.1 µM [inhibitor, single point] | – |
| CCN1C(=S)SC(=O)C1=C1C=C(C)N(CCO)C(C)=C1 | inconclusive: 14.1 µM [inhibitor, partial curve, poor fit] | – |

| Compound | Potency | activity, negative = inhibition |
| --- | --- | --- |
| CCn1c(=O)c2c(nc(SCC(=O)Nc3ccccc3)n2C)n(C)c1=O | inactive | – |
| CCOc1ccc(OCC(=O)OC(C)C(=O)NC2CCCCC2C)cc1 (stereo not given) | inconclusive: 39.8 µM [inhibitor, single point] | – |
| Cc1ccc(C(=O)CN(C(=O)c2ccc(Cl)cc2)N2C(=O)CCC2=O)cc1 | inconclusive: 70.8 µM [inhibitor, partial curve, poor fit] | – |
| COc1ccc(CCNC(=O)c2cc(S(=O)(=O)N3CCCC(C)C3)cn2C)cc1OC (stereo not given) | inactive | – |
| O=C(NC(=S)NCC1COc2ccccc2O1)c1ccccc1 (stereo not given) | inconclusive: 39.8 µM [inhibitor, single point] | – |
| COC(=O)/C(N=Nc1c(C)n(C)n(-c2ccccc2)c1=O)=C(\C)O | inconclusive: 89.1 µM [inhibitor, partial curve, poor fit] | – |
| Cc1ccccc1C(=O)N1CCC(C(=O)N(CC(C)C)c2c(N)n(CC(C)C)c(=O)[nH]c2=O)CC1 | – | inactive: 15.1% [at 12.7 µM] |
| N#Cc1c2ccccc2nc2ccccc12 | inconclusive: 35.5 µM [inhibitor, partial curve, poor fit] | – |
| CCOC(=O)/C(C#N)=N/Nc1ccccc1C(=O)O | inconclusive: 89.1 µM [inhibitor, single point] | – |
| COc1ccc(S(=O)(=O)Nc2cccc(-c3ccc4nncn4n3)c2)cc1F | inactive | – |
| O=C(Nc1ccccc1C(=O)Nc1ccccc1C(=O)O)c1ccccc1 | inactive | – |
| CCOP(=O)(OCC)/C(=N/OC(=O)c1ccc(OC)cc1)C(N)=O | inconclusive: 89.1 µM [inhibitor, partial curve, poor fit] | – |
| CCSc1nc2sc3c(c2c(=O)n1-c1ccccc1)CCN(C)C3 | active: 79.4 µM | – |
| N#Cc1c(/N=C/c2cccs2)sc2c1CCC2 | inconclusive: 0.794 µM [inhibitor, partial curve, poor fit] | – |
| N#Cc1c(SCc2c(Cl)cccc2Cl)nc(N)[nH]c1=S | – | inactive: 41.2% [at 12.7 µM] |
| CCOc1ccccc1Nc1ccc(C(=O)O)cc1N | inconclusive: 89.1 µM [inhibitor, single point] | – |
| Cc1ccc(S(=O)(=O)Cn2nnnc2C(CC(C)C)N2CCN(c3ccccc3)CC2)cc1 (stereo not given) | inconclusive: 39.8 µM [inhibitor, single point] | – |
| Cc1cc(C)c(Cn2c3ccccc3c3cnn(CC(=O)NCCN4CCOCC4)c(=O)c32)c(C)c1 | inconclusive: 89.1 µM [inhibitor, single point] | – |
| CC[n+]1c(/C=C/c2c[nH]c3ccccc23)ccc2cc(C)ccc21 | active: 35.5 µM | – |
| COC(=O)C1=C(C)N=C2SC(C#N)=C(N)N2C1c1ccc(OCc2ccccc2)cc1 (stereo not given) | inconclusive: 79.4 µM [inhibitor, single point] | – |
| O=C(COC(=O)COc1ccc(Cl)cc1)NCCNC(=O)COC(=O)COc1ccc(Cl)cc1 | inconclusive: 79.4 µM [inhibitor, partial curve, poor fit] | – |
